Measured values: PubChem BioAssay AID686978 (National Center for Advancing Translational Sciences (NCATS), 2013)
In all, about 420,000 compounds went through this assay and about 64,000 (15%) were called active. The inconclusive results got no clear call from the source; some entries with a clear call stand among them for comparison. The call rests on the fitted dose curve; in most records, active means well fitted inhibition curve with a large enough effect; inconclusive means small, poorly fitted or top-dose-only effect; inactive means flat fitted curve, though single readings scatter. Potencies of inconclusive entries are left out as doubtful fits. More than one record can exist for a structure, and the calls need not agree.
On the % scale 0 is the no-effect control and ±100 the full control effect; potency means the concentration at half of the fitted maximal effect; tags describe the fitted curve by direction and shape.

Experiment: qHTS for Inhibitors of human tyrosyl-DNA phosphodiesterase 1 (TDP1): qHTS in cells in absence of CPT; further: nearly all actives have a fitted effect of over 55% in size
Conditions: DT40 Tdp1-/- hTDP1 cells, no CPT, ATP luminescence, 48 h; activity change, negative = growth inhibition: at 46.2 µM (top of the series) unless noted
Method in brief: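 Readout: luminescence from CellTiter-Glo after 30 min in the dark at RT. Cells: DT40 Tdp1-/- with stable hTDP1, 400/well. Exposure: compounds alone, ≥48 hr, 37 °C.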
With CC(C)NC(=O)CN1C(=O)c2cccc3cccc1c23 the “activity change, negative = growth inhibition” value was inactive: 8.78%.
With CCN(C(=O)COC(=O)c1cc(-c2ccccc2)nc2c1c(C)nn2-c1ccc(C)cc1)C1CCS(=O)(=O)C1 (stereo not drawn) the activity change, negative = growth inhibition was inconclusive: -30.6% [inhibitor].
In the case of CN(CCc1ccccc1)C(=O)c1ccc(NC(=O)Cc2ccc(NC(=O)C3CCCN(C(=O)C4CCC4)C3)cc2)cc1 (stereo not drawn), the Potency is reported as active: 13 µM.
For CCCCN(CC)CCNC(=O)c1cc2c(=O)[nH]c3ccccc3c2n1C, the Potency was active: 16.4 µM.
With Cc1ccccc1OCC(=O)Nc1ccc(-c2nc3ncccc3o2)cc1 the Potency was inconclusive [inhibitor, single point].
In the case of CCOc1ccc(OCCC(=O)OCC(=O)NC(C)c2ccccc2)cc1 (stereo not drawn), the “activity change, negative = growth inhibition” value is reported as inactive: 5.11%.
In the case of CC(NC(=S)Nc1ccc(F)cc1)C(c1cccs1)N1CCOCC1 (stereo not drawn), the Potency is reported as inconclusive [inhibitor, single point].
For Cc1cccc(C)c1Nc1nnc(SCC(=O)c2ccc3c(c2)NC(=O)CO3)s1, the “activity change, negative = growth inhibition” value was inactive: -5.76%.
In the case of CC1(C)Cc2c(sc3c2c(=N)n(Cc2ccco2)c(=O)n3Cc2ccc(Cl)cc2)CO1, the Potency is reported as inconclusive [inhibitor, single point].
With Cc1cc(NC(=O)c2ccc(S(=O)(=O)N3CCCC3)cc2)nc2c1c(=O)oc1ccccc12 the Potency was active: 10.3 µM.
With Cc1ccccc1Nc1ncnc2c1cnn2C the activity change, negative = growth inhibition was inconclusive: -31.9% [inhibitor].
For COc1ccccc1C(=O)Nc1ccnn1C1CCN(C/C=C/c2ccccc2)CC1, the Potency was inconclusive [inhibitor, single point].
For COc1ccc(CN(C)C(C)C(=O)Nc2ccc([N+](=O)[O-])cc2Cl)cc1OC (stereo not drawn), the Potency was active: 9.2 µM.
For COc1ccc(CNC(=O)CSc2nnc(NC(=O)c3ccccc3F)s2)cc1, the Potency was inconclusive [inhibitor, single point].
For O=C1CC(c2ccccc2)CC(=NCCO)/C1=C(\O)CCCN1C(=O)c2ccccc2C1=O (stereo not drawn), the Potency was inconclusive [inhibitor, single point].
In the case of CCCN(CCC)c1ncnc2nc[nH]c12, the Potency is reported as inconclusive [inhibitor, partial curve].
In the case of CCCCn1nc(NC(=O)c2cccc(Cl)c2)c2cc3ccccc3nc21, the Potency is reported as inconclusive [inhibitor, single point].
For C/C(=N\NC(=O)CNc1cccc(C(F)(F)F)c1)c1cccs1, the Potency was inconclusive [inhibitor, single point].
In the case of COc1ccc(OC)c(C2CC(c3c(-c4ccccc4)c4cc(Cl)ccc4[nH]c3=O)=NN2S(C)(=O)=O)c1 (stereo not drawn), the Potency is reported as inconclusive [inhibitor, single point].
For CCOC(=O)c1sc(NC(=O)c2ccc(S(=O)(=O)N3CCOCC3)cc2)nc1-c1ccccc1, the Potency was inconclusive [inhibitor, single point].
With COc1cc2nc(C3CCC3)nc(N3CCN(c4ccccn4)CC3)c2cc1OC the Potency was active: 9.2 µM.
In the case of O=C(O)CCC(=O)NNC(=O)c1ccc(Br)cc1, the “activity change, negative = growth inhibition” value is reported as inactive: -0.171%.
For Cc1ccccc1NC(=O)CCCN1C(=O)C2CC=CCC2C1=O (stereo not drawn), the “activity change, negative = growth inhibition” value was inactive: 13.8%.
In the case of Cc1cc2sc3nc(=O)n(-c4ccccc4)c(=O)n3c2cc1C, the Potency is reported as inconclusive [inhibitor, single point].
For CCCc1nc2ccccc2n2c(-c3ccccc3)c3c(=O)n(C)c(=O)n(C)c3c12, the Potency was inconclusive [inhibitor, single point].
For Cc1cc(Br)c(NC(=O)COC(=O)c2ccc[n+]([O-])c2)c(Br)c1, the “activity change, negative = growth inhibition” value was inactive: -1.82%.
For O=[N+]([O-])c1ccc(/C=C/c2ccnc3ccccc23)cc1, the Potency was active: 15.8 µM.
With CC(C)N1C(=O)CC2(CC[N+](C)(CCOC(=O)C(c3ccccc3)c3ccccc3)CC2)C1=O (stereo not drawn) the “activity change, negative = growth inhibition” value was inactive: -3.12%.
For O=C(Nc1ccc(S(=O)(=O)Nc2ncccn2)cc1)c1ccc2ncsc2c1, the Potency was inconclusive [inhibitor, partial curve].
For Cc1ccc(S(=O)(=O)N(CC(=O)N2CCN(c3ccc(F)cc3)CC2)C2CCCCC2)cc1, the Potency was active: 20.6 µM.
With CC(=O)Cc1nsc(NC(=O)c2c(-c3ccccc3Cl)noc2C)n1 the Potency was inconclusive [inhibitor, single point].
In the case of CCOCC(=O)Nc1cc(S(=O)(=O)N2CCOCC2)ccc1N1CCCCC1, the Potency is reported as active: 16.4 µM.
In the case of Cn1c(=O)c2c(nc(SCCCC#N)n2Cc2ccccc2F)n(C)c1=O, the Potency is reported as inconclusive [inhibitor, partial curve].
For Cc1cccc(CN2CCC(n3nccc3NC(=O)c3ccccc3C)CC2)n1, the “activity change, negative = growth inhibition” value was inactive: 0.0568%.
In the case of CCc1noc(C)c1C(=O)Nc1cccc(S(=O)(=O)N2CCCCCC2)c1, the Potency is reported as inconclusive [inhibitor, single point].
With Cc1ccc(OCCC(=O)OCC(=O)Nc2ccc3c(c2)OCCO3)cc1 the “activity change, negative = growth inhibition” value was inactive: -22.7%.
In the case of COc1ccc(OC)c(NC(=O)COc2ccc(S(=O)(=O)N3CCCC3)cc2)c1, the Potency is reported as inconclusive [inhibitor, single point].
With CCNC(=S)NNC(=S)NCc1ccccc1 the Potency was inconclusive [inhibitor, single point].
For CC(C)c1ccc(C(=O)Nc2cc(-c3ccccc3F)nn2-c2ccccc2)cc1, the Potency was active: 10.3 µM.
In the case of Cc1ccc(-c2c[n+](CC(=O)Nc3ccccc3)c3n2CCC3)cc1, the Potency is reported as active: 11.6 µM.
For O=C1C2C3C=CC(CC3)C2C(=O)N1/N=C/c1ccc(O)c(O)c1 (stereo not drawn), the Potency was inconclusive [inhibitor, single point].
In the case of O=C1c2ccccc2NC(c2ccc3c(c2)OCO3)N1Cc1ccco1 (stereo not drawn), the Potency is reported as inconclusive [inhibitor, partial curve].
With CC(=O)c1ccc(N2CCN(CC(O)COC(c3ccccc3)c3ccccc3C)CC2)cc1 (stereo not drawn) the Potency was inconclusive [inhibitor, single point].
With COc1ccc(C(=O)NCCc2cccc(Cl)c2)cc1OC1CCN(C(C)=O)CC1 the Potency was inconclusive [inhibitor, single point].
For CCN(CC)c1ccc(C(=O)Nn2cnc3ccccc3c2=O)cc1, the “activity change, negative = growth inhibition” value was inactive: -10.9%.
For Cc1ccc(NC(=O)CCC(=O)NNC(=O)/C=C/C(=O)O)c(C)c1, the “activity change, negative = growth inhibition” value was inactive: 12.8%.
In the case of O=S(=O)(c1ccc(NC(=S)N/N=C/c2ccc(Oc3ccccc3)cc2)cc1)N1CCOCC1, the “activity change, negative = growth inhibition” value is reported as inactive: -11.6%.
In the case of COc1ccc(CN2CCN(CC=C(C)C)C(CCO)C2)cc1Cn1cccn1 (stereo not drawn), the “activity change, negative = growth inhibition” value is reported as inactive: 0.375%.
With COc1ccc(N2C(=O)c3ccc(C(=O)OC(C)C)cc3C2=O)cc1 the Potency was active: 5.8 µM.
With CCN(CC)c1ccc(/C=N/OCC(=O)Nc2cccc(C)c2)cc1 the Potency was inconclusive [inhibitor, single point].
For CC(=O)Nc1ccc(Nc2cc(C)nc3c(-c4ccccc4)c(C)nn23)cc1, the Potency was inconclusive [inhibitor, single point].
With C[C@@H]1CN([C@@H](C)CO)C(=O)c2cc(N(C)C)ccc2O[C@@H]1CN(C)S(C)(=O)=O the “activity change, negative = growth inhibition” value was inactive: 4.62%.
With O=C1/C(=C/c2ccco2)Oc2c1ccc(O)c2CN1CCCCC1 the Potency was inconclusive [inhibitor, single point].
For Cc1cc(C)cc(NC(=O)COc2coc(CN3CCc4ccccc4C3)cc2=O)c1, the activity change, negative = growth inhibition was inconclusive: -38.9% [inhibitor].
For OC(c1cccc(CN2CCCCC2)c1)c1ncc(-c2cccc(C(F)(F)F)c2)[nH]1 (stereo not drawn), the Potency was active: 20.6 µM.
For Cc1ccc(NC(=O)Cn2nnc(C(=O)NCc3cccs3)c2N)c(C)c1, the “activity change, negative = growth inhibition” value was inactive: 17.1%.
For COc1cccc(CNCC2CCCO2)c1 (stereo not drawn), the “activity change, negative = growth inhibition” value was inactive: 9.63%.
With Cc1ccc(-c2cc(C(=O)N/N=C/c3ccccc3)n[nH]2)o1 the Potency was inconclusive [inhibitor, single point].
With Cc1cc(Br)c(S(=O)(=O)NCc2ccncc2)cc1C the Potency was active: 7.31 µM.
With Cc1ccc(S(=O)(=O)N(C)c2cc(S(=O)(=O)N3CCOCC3)c(C)cc2C)cc1 the Potency was inconclusive [inhibitor, single point].
In the case of COc1cc(-c2nc3ccc(N4CCN(C)CC4)cc3[nH]2)cc(OC)c1OC, the Potency is reported as inconclusive [inhibitor, single point].
For CC1CCCC(C)N1/N=C/c1ccc(Cl)cc1 (stereo not drawn), the activity change, negative = growth inhibition was inconclusive: -33.2% [inhibitor].
With COc1cc2c(cc1OC)C(C)N(C(=O)c1sc(-c3cnccn3)nc1C)CC2 (stereo not drawn) the Potency was inconclusive [inhibitor, single point].
With CCCOc1ccc(CNC(=O)Cn2ncn3c(cc4sc(CC)cc43)c2=O)cc1 the Potency was inconclusive [inhibitor, single point].
With O=Cc1ccc(Sc2ncccn2)o1 the “activity change, negative = growth inhibition” value was inactive: 2.18%.
For CC(C)(C)OC(=O)N1CCC(NC(=O)c2[nH]cnc2C(=O)Nc2ccccc2F)CC1, the Potency was inconclusive [inhibitor, single point].
In the case of CCOC(=O)CN(C#N)c1nc(C)cc(C)n1, the activity change, negative = growth inhibition is reported as inconclusive: -30.4% [inhibitor].
With C/C(=N/OCC(=O)Nc1ccccc1)c1cccs1 the Potency was inconclusive [inhibitor, single point].
In the case of COc1ccc(-c2sc3cc(OC)c(OC)cc3c2C#CCO)cc1, the Potency is reported as inconclusive [inhibitor, partial curve].
With O=C(O)/C=C/c1ccc2ccccc2c1 the “activity change, negative = growth inhibition” value was inactive: -1.86%.
With O=C(CCc1nc(-c2ccc(Cl)cc2)no1)NC1CCCC1 the Potency was inconclusive [inhibitor, partial curve].
With CC(=O)c1cccc(-c2ccnc3c2CC(C(=O)Nc2ccc(C(C)C)cc2)O3)c1 (stereo not drawn) the Potency was active: 10.3 µM.
In the case of Cn1c(=O)[nH]c(=O)c2c1nc(N/N=C/c1ccncc1)n2Cc1ccc(Cl)cc1, the “activity change, negative = growth inhibition” value is reported as inactive: -1.95%.
